Values marked as one replicate rest on one cluster of the flow cell; about a third of the high ones do not repeat.
Each sequence was assayed on ATP (assay: switch fluorescence ratio, 500 uM ATP over buffer (Cy3 cluster intensity, sum of 5 cycles each) (fold (ratio)); higher = stronger signal-on switching upon ATP binding; sequences stand for … in TCGTCGGCAGCGTCAGATGTGTATAAGAGACAGTTTTTTTTTTTTTTTTTTTTTTTTT…TC). Conditions: aptamer strand: ATP DNA aptamer (quencher-CACCTGGGGGAGTATTGCGGAGGAAGG + anchor), 100 nM annealed; ATP concentration: 500 uM; one replicate.
Procedure, shortened: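 Clusters with intensities outside 100-1000 RFU were excluded. The remaining Cy3-labelled switching-strand clusters on a modified Illumina MiSeq flow-cell had been annealed to 100 nM quencher-labelled ATP aptamer and imaged in selection buffer, then after 15 min with 500 uM ATP at 22 °C, for five cycles separated by NaOH stripping and re-annealing. The fluorescence ratio, averaged per switch-domain sequence, is each cluster's summed target-cycle Cy3 intensity over its summed buffer-cycle Cy3 intensity.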
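Also: ATP exposure 15 min at 22 °C before imaging.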

Row | Sequence | switch fluorescence ratio
1 | CCTGGTTTTA | 0.981
2 | ATTAGACGCA | 1.09
3 | CTACTTTCCG | 1.06
4 | AGCGGGAAAT | 1.01
5 | TAGCTTAAGT | 0.995
6 | GCGGACAACC | 1.06
7 | TGAGTTAAGC | 1.02
8 | TAAGATGGGC | 1.01
9 | AGGCTGATCT | 0.993
10 | CGATGCTGGG | 1.07
11 | ACACGGCGGT | 1.02
12 | CATTACGGGC | 1.06
13 | TAAGAGGCCG | 0.978
14 | TCACGGTGAG | 0.967
15 | AAAACATTTA | 1.03
16 | TCCAACTCGC | 1.11
17 | ACCTGCATGA | 1.14
18 | ATAGAAAAC | 0.973
19 | ATATTCGAGG | 1
20 | GGTCTATG | 0.985
21 | TGGGTACGTA | 1.03
22 | GGTTGCTTCG | 0.978
23 | ATGATTAGAA | 1.02

Row | Sequence | switch fluorescence ratio
24 | AAAGTGAGTC | 0.996
25 | TGGGATTCTG | 0.967
26 | TAGACCCGTT | 0.973
27 | TCGTGTTGTA | 1.03
28 | ATGCGTCTGC | 1.11
29 | CCGTGAGTA | 1.12
30 | TATTAGGAAT | 0.999
31 | TGCCATATCC | 1.08
32 | GATGAGGAGC | 1.02
33 | AATAGGTGAC | 1.07
34 | GAAAGGTGAG | 0.986
35 | CTGCGGGCTC | 1.31
36 | CTTCAGAAAG | 0.98
37 | ATATTGAGTT | 1.31
38 | ATAGGTGCGC | 0.991
39 | CGATTTTT | 0.99
40 | TGTGGCGCAT | 0.995
41 | TGAGAGGCGG | 1
42 | GGGAGTTACA | 0.979
43 | GCAGTTGCAA | 0.988
44 | TATTTGAGGA | 1.02
45 | CCGCATTTTA | 3.4
46 | TTACGGGGCG | 1.03

Row | Sequence | switch fluorescence ratio
47 | AAGCGTTCAC | 1.07
48 | AAATACCCGT | 1.13
49 | GCATTGGTTG | 1.02
50 | CATTTAGAAT | 1.01
51 | TATGTTTGTT | 0.994
52 | AATAGTGGG | 0.962
53 | TACTTATCCG | 0.977
54 | TCTGGCTCTT | 0.976
55 | CGCGCGTTCT | 0.962
56 | GTATCTAAGT | 1.02
57 | ACAACGGGGA | 0.993
58 | ATCAATGTGG | 0.937
59 | GTGAGCGGTA | 1.02
60 | TCGATTTGGG | 1.03
61 | CATCCATATG | 0.995
62 | GGCGAATGTG | 0.983
63 | ACGAATCGTC | 1.01
64 | TGCATTTCA | 1.02
65 | AACTTCATTT | 1.03
66 | CGACTTATGA | 1.03
67 | GTATGTCCAC | 1.02
68 | GGATGAAGCC | 0.993
69 | GGACTTCAGC | 0.94

Row | Sequence | switch fluorescence ratio
70 | CAACCTGCT | 0.988
71 | AATCACAGAC | 1.33
72 | GCTTTTTTCG | 0.99
73 | CGCTAGTGCC | 1.03
74 | ATCTGATCCA | 1
75 | CTCAACGATC | 1.22
76 | CTGTGTTACT | 1.02
77 | AGTTTGCATT | 1.06
78 | TGGCCTCAGT | 1.02
79 | AAGCAACGTG | 1.05
80 | GGTAATCTGA | 0.991
81 | AAGCGGATAA | 1.1
82 | TGGCATTAAT | 0.969
83 | TTCTCGACGT | 1.03
84 | GGAGGGTCGG | 0.953
85 | CTACGGATC | 1.48
86 | TTACAAATAG | 1.15
87 | CAATCTCCTC | 1.21
88 | CGAACCAGGG | 1.08
89 | AAACCGGTCA | 1.01
90 | CCTAAACCTA | 1.05
91 | CTCGCTACAT | 1.25
92 | CATTGGTG | 0.972

Row | Sequence | switch fluorescence ratio
93 | GCTGAACACC | 1.02
94 | ATGCCCAGAT | 0.976
95 | CCGAAAATCC | 1.35
96 | GCATAAGCCT | 1.08
97 | TTCGTCGAGG | 0.982
98 | TTGCTTGACA | 1
99 | ACGAGAGA | 1.05
100 | AATAACGTGT | 1.02
101 | GGGGCTGTTT | 0.984
102 | GCGCTACTGC | 1.05
103 | TGGGGATGCT | 0.958
104 | TGGAGGGAAA | 0.977
105 | CCGAGTTCGC | 1.19
106 | AATGCTTTTT | 0.989
107 | CCCGATCCGT | 1.08
108 | CCCACGGGGC | 1.16
109 | AGATTTTAAC | 0.994
110 | TGAGTAGACC | 1.01
111 | TCTTGAAAGG | 0.955
112 | AGCGTAAACC | 1.07
113 | GCGAGCGAGC | 0.951
114 | TGGCTCCGCT | 2.2
115 | CTCGATCTTC | 1.02

Row | Sequence | switch fluorescence ratio
116 | GGAGTGTAAG | 1.03
117 | CGGAGATTCT | 0.977
118 | GGTTAATCAA | 0.982
119 | GCAGCCCAGG | 1.1
120 | GCTACTGAAC | 1.19
121 | AATGTGGTTA | 0.973
122 | TGTTCCTCAG | 1.28
123 | CGAGAATCTG | 0.953
124 | CCTCTATGA | 1.35
125 | CGAGTCCTT | 1.02
126 | GGCCTGACTC | 1.96
127 | TCTGCCATCT | 0.961
128 | AGGCAGAGGG | 1.02
129 | GGTTGAACGT | 1.02
130 | CCACTCAACC | 1.19
131 | GGCTCATATT | 0.996
132 | TGAGACCAAC | 1.11
133 | CGGAGTCTCT | 1.09
134 | AGACGCGGTA | 1.02
135 | TGTCCTGGGG | 0.983
136 | AGATATCAGT | 0.999
137 | AATTATCCG | 0.974
138 | GGGCTATTAC | 1.53

Row | Sequence | switch fluorescence ratio
139 | TGGCAGCGTG | 1.02
140 | GAGGTTAGGG | 0.943
141 | CTCGTACCAA | 1.11
142 | CGTTTGCCT | 0.986
143 | TACTTGATTT | 0.982
144 | TATGCACGGC | 1.07
145 | AGCGATGTAT | 1.01
146 | AGGTCAGGGG | 1.09
147 | TCTACAGCA | 1.22
148 | CGCGCTCATT | 1.03
149 | GGCAGTACAG | 0.967
150 | GCGTCCAGCT | 0.947
151 | GCTAGCGGGA | 0.993
152 | ACGGAGCCG | 0.884
153 | ACATATCTCC | 1.12
154 | CTAATGGG | 1.01
155 | AGATGGATTC | 0.996
156 | TTCGGCAGGC | 1.2
157 | TCGCCATG | 0.998
158 | CTTTATGCCG | 1.03
